Test results from paper PMC5454113, “Factor V has an anticoagulant cofactor activity that targets the early phase of coagulation” (The Journal of Biological Chemistry, 2017).

Tests used:
activated factor X (FXa) [1] = target: T1, activated factor X (FXa) (UniProt P00742 41-179; P00742 235-488); test: enzyme inhibition kinetics (chromogenic substrate); as a1, with 30 nM recombinant FV and 100 nM protein S chimera III; details: both partners purified
T1 construct: Two disulfide-linked chains; also called factor Xa; source: bought: Hematologic Technologies Inc. (HTI)

activated factor X (FXa) [2] = target: T1, activated factor X (FXa); test: enzyme inhibition kinetics (chromogenic substrate); as a1, with 100 nM protein S, no FV; details: both partners purified
activated factor X (FXa) [3] = target: T1, activated factor X (FXa); test: enzyme inhibition kinetics (chromogenic substrate); as a1, with 30 nM recombinant FV, no protein S; details: both partners purified
activated factor X (FXa) [4] = target: T1, activated factor X (FXa); test: enzyme inhibition kinetics (chromogenic substrate); FXa 0.3 nM, TFPI 0–16 nM, S-2765 200 uM, 25 uM phospholipids (DOPC/DOPS/DOPE 60:20:20), 5 mM CaCl2, 25 °C, 60 min; no protein S, no FV; Ki = encounter complex, Ki* = overall dissociation constant; details: both partners purified
activated factor X (FXa) [5] = target: T1, activated factor X (FXa); test: as above; details: both partners purified; remark: listed apart in the source
activated factor X (FXa) [6] = target: T1, activated factor X (FXa); test: enzyme inhibition kinetics (chromogenic substrate); as a1, with 30 nM recombinant FV and 100 nM protein S; details: both partners purified
activated factor X (FXa) [7] = target: T1, activated factor X (FXa); test: cell-based or functional assay
activated factor X (FXa) [8] = target: T1, activated factor X (FXa); test: enzyme inhibition kinetics (chromogenic substrate); as a1, with 30 nM FVa (FV activated with human α thrombin, stopped with hirudin), no protein S; details: both partners purified
activated factor X (FXa) [9] = target: T1, activated factor X (FXa); test: enzyme inhibition kinetics (chromogenic substrate); as a1, with 30 nM FV810 (recombinant B domain-deleted FV), no protein S; details: both partners purified
activated factor X (FXa) [10] = target: T1, activated factor X (FXa); test: enzyme inhibition kinetics (chromogenic substrate); as a1, with 30 nM FV810 (recombinant B domain-deleted FV) and 100 nM protein S; details: both partners purified
activated factor X (FXa) [11] = target: T1, activated factor X (FXa); test: enzyme inhibition kinetics (chromogenic substrate); as a1, with 100 nM protein S chimera III, no FV; details: both partners purified
activated factor X (FXa) [12] = target: T1, activated factor X (FXa); test: enzyme inhibition kinetics (chromogenic substrate); as a1, with 30 nM FV^ΔIIa (FV R709Q/R1018Q/R1545Q), no protein S; details: both partners purified
activated factor X (FXa) [13] = target: T1, activated factor X (FXa); test: enzyme inhibition kinetics (chromogenic substrate); as a1, with 30 nM FV^ΔIIa (FV R709Q/R1018Q/R1545Q) and 100 nM protein S; details: both partners purified
activated factor X (FXa) [14] = target: T1, activated factor X (FXa); test: enzyme inhibition kinetics (chromogenic substrate); as a1, with 30 nM recombinant FV, no protein S; details: both partners purified; remark: listed apart in the source
activated factor X (FXa) [15] = target: T1, activated factor X (FXa); test: enzyme inhibition kinetics (chromogenic substrate); as a1, with 30 nM FVa (FV activated with human α thrombin, stopped with hirudin) and 100 nM protein S; details: both partners purified
activated factor X (FXa) [16] = target: T1, activated factor X (FXa); test: enzyme inhibition kinetics (chromogenic substrate); as a1, with 30 nM recombinant FV and 100 nM protein S; details: both partners purified; remark: listed apart in the source
activated factor X (FXa) [17] = target: T1, activated factor X (FXa); test: enzyme inhibition kinetics (chromogenic substrate); FXa 0.3 nM, TFPI 0–16 nM, S-2765 200 uM, 25 uM phospholipids (DOPC/DOPS/DOPE 60:20:20), 5 mM CaCl2, 25 °C, 60 min; no protein S, no FV; Ki = encounter complex, Ki* = overall dissociation constant; details: both partners purified; remark: listed apart in the source
activated factor X (FXa) [18] = target: T1, activated factor X (FXa); test: enzyme inhibition kinetics (chromogenic substrate); as a1, with 30 nM recombinant FV, no protein S; details: both partners purified; remark: listed apart in the source
activated factor X (FXa) [19] = target: T1, activated factor X (FXa); test: enzyme inhibition kinetics (chromogenic substrate); as a1, with 100 nM protein S, no FV; details: both partners purified; remark: listed apart in the source

T1 sequence (P00742 41-179, chain 1 of 2): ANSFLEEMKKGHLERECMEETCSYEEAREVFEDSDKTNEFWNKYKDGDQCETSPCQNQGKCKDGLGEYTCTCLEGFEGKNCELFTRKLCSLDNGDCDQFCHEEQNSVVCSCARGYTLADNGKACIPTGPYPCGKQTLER
T1 sequence (P00742 235-488, chain 2 of 2): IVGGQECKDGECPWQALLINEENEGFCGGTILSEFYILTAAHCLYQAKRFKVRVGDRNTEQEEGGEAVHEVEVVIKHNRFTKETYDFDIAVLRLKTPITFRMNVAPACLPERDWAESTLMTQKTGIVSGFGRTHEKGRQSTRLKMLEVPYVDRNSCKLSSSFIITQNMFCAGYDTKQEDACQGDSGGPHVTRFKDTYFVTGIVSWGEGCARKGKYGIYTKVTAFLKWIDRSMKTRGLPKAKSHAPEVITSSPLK

B1: Tissue factor pathway inhibitor (TFPI), recombinant full-length (natural protein)
chain: not shown
notes: estimated by ELISA to be 88–100% full-length; also called full-length TFPI
Ki (activated factor X (FXa) [1]): 72 pM
Ki of the encounter complex (first step) (activated factor X (FXa) [1]): 1490 pM
Ki (activated factor X (FXa) [2]): 16 pM
Ki of the encounter complex (first step) (activated factor X (FXa) [2]): 700 pM
Ki (activated factor X (FXa) [3]): 60 pM
Ki of the encounter complex (first step) (activated factor X (FXa) [3]): 3870 pM
Ki (activated factor X (FXa) [4]): 34 pM
Ki of the encounter complex (first step) (activated factor X (FXa) [4]): 2710 pM
Ki (activated factor X (FXa) [5]): 65 pM
Ki of the encounter complex (first step) (activated factor X (FXa) [5]): 2160 pM
Ki (activated factor X (FXa) [6]): 8 pM
Ki of the encounter complex (first step) (activated factor X (FXa) [6]): 360 pM
IC50 of TFPI for FXa-catalysed prothrombin activation (thrombin substrate S-2238), no FV, no protein S (activated factor X (FXa) [7]): 2940 pM
IC50 of TFPI for FXa-catalysed prothrombin activation (thrombin substrate S-2238), no FV, with 100 nM protein S (activated factor X (FXa) [7]): 510 pM
IC50 of TFPI for FXa-catalysed prothrombin activation (thrombin substrate S-2238), with 200 pM FV and 100 nM protein S (activated factor X (FXa) [7]): 0.25 nM
IC50 of TFPI for FXa-catalysed prothrombin activation (thrombin substrate S-2238), with 200 pM FV, no protein S (activated factor X (FXa) [7]): 4.12 nM
IC50 of TFPI for FXa-catalysed prothrombin activation (thrombin substrate S-2238), with 200 pM FV^ΔIIa and 100 nM protein S (activated factor X (FXa) [7]): 0.25 nM
IC50 of TFPI for FXa-catalysed prothrombin activation (thrombin substrate S-2238), with 200 pM FV^ΔIIa, no protein S (activated factor X (FXa) [7]): 2.79 nM
Ki (activated factor X (FXa) [8]): 160 pM
Ki of the encounter complex (first step) (activated factor X (FXa) [8]): 3960 pM
Ki (activated factor X (FXa) [9]): 21 pM
Ki of the encounter complex (first step) (activated factor X (FXa) [9]): 7160 pM
Ki (activated factor X (FXa) [10]): 40 pM
Ki of the encounter complex (first step) (activated factor X (FXa) [10]): 2230 pM
Ki (activated factor X (FXa) [11]): 47 pM
Ki of the encounter complex (first step) (activated factor X (FXa) [11]): 2870 pM
Ki (activated factor X (FXa) [12]): 37 pM
Ki of the encounter complex (first step) (activated factor X (FXa) [12]): 1700 pM
Ki (activated factor X (FXa) [13]): 13 pM
Ki of the encounter complex (first step) (activated factor X (FXa) [13]): 230 pM
Ki (activated factor X (FXa) [14]): 42 pM
Ki of the encounter complex (first step) (activated factor X (FXa) [14]): 2030 pM
Ki (activated factor X (FXa) [15]): 19 pM
Ki of the encounter complex (first step) (activated factor X (FXa) [15]): 1870 pM

B2: TFPI E226Q (natural protein)
chain: not shown
Ki (activated factor X (FXa) [16]): 22 pM
Ki of the encounter complex (first step) (activated factor X (FXa) [16]): 2070 pM
Ki (activated factor X (FXa) [17]): 21 pM
Ki of the encounter complex (first step) (activated factor X (FXa) [17]): 2230 pM
Ki (activated factor X (FXa) [18]): 25 pM
Ki of the encounter complex (first step) (activated factor X (FXa) [18]): 4380 pM
Ki (activated factor X (FXa) [19]): 28 pM
Ki of the encounter complex (first step) (activated factor X (FXa) [19]): 2610 pM
